SMILES strings stand for the structures. Out of some 310,000 compounds screened, about 14,000 (4.5%) showed an effect of 50% or more. The effect is printed as a negative number. The list shows a part of the results.
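Note: peak tail current of the secondary pulse compared with the same well before compound.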

The assay deals with human ether-à-go-go-related gene (hERG) potassium channel (human, UniProt Q12809). As to the kind of experiment: primary screen, population patch clamp on CHO cells stably expressing hERG.
Sequence of human ether-à-go-go-related gene (hERG) potassium channel (Q12809 whole entry, looked up): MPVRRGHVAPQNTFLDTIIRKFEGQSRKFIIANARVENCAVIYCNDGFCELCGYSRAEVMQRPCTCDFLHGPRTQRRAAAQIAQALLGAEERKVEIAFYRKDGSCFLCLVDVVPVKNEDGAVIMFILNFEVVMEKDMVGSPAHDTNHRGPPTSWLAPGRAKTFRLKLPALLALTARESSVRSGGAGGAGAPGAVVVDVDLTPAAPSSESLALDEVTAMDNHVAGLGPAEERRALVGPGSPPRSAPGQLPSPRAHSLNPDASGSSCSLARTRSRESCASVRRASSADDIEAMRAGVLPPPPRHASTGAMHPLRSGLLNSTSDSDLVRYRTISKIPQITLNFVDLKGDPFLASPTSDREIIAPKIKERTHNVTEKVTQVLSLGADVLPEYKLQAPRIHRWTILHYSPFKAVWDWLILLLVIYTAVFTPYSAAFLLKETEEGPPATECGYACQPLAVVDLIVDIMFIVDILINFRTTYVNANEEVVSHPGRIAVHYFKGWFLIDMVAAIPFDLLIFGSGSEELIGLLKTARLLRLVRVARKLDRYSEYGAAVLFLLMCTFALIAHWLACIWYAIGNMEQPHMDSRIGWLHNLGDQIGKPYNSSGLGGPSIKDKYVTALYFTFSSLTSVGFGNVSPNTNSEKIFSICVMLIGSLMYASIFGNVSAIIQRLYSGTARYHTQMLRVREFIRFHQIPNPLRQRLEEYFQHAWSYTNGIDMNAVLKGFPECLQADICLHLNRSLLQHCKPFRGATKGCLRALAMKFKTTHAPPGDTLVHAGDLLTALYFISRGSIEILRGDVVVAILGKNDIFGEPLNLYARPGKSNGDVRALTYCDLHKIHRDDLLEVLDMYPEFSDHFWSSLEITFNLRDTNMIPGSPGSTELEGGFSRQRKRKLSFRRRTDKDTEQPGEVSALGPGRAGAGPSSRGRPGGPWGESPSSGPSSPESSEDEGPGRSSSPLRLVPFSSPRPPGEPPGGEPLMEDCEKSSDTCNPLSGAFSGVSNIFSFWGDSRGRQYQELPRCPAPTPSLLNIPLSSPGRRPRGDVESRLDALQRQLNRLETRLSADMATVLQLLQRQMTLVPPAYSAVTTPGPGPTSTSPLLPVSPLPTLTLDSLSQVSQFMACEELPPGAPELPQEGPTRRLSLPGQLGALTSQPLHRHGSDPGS
For `CC(=O)C1C(c2ccc([N+](=O)[O-])cc2)c2c(noc2C)CC1(C)O` (stereo not shown), the “hERG current change (%, negative = inhibition) at 10uM” value came out at 12.4%.

For `CCCc1cc(=O)[nH]c(/N=C(\N)Nc2ccccc2)n1`, the “hERG current change (%, negative = inhibition) at 10uM” value was -4.7%.

As to `COc1ccc(/C=C/C(=O)NCCSCc2ccco2)cc1`, the “hERG current change (%, negative = inhibition) at 10uM” value is -5.19%.

Consider `CCOc1cc(N2CCOCC2)c(OCC)cc1NC(=O)CN1C(=O)NC(C)(C2CC2)C1=O` (stereo not shown), for which the “hERG current change (%, negative = inhibition) at 10uM” value was determined as 26.8%.

Turning to `COc1ccc(N(CC(=O)O)S(=O)(=O)c2cccnc2)cc1`, the “hERG current change (%, negative = inhibition) at 10uM” value is recorded as 13.5%.

`COc1cccc(-c2c(C(=O)N/N=C(\C)c3ccc(Cl)s3)nnn2-c2nonc2N)c1`: the “hERG current change (%, negative = inhibition) at 10uM” value is given as 17%.

For `Cc1ccc(NC(=O)COc2ccccc2C=O)cc1Cl`, the “hERG current change (%, negative = inhibition) at 10uM” value was determined as 2.05%.

On to `Cc1nc2sccn2c1-c1csc(NCc2ccccc2)n1`, for which the “hERG current change (%, negative = inhibition) at 10uM” value is 6.86%.

`Cc1nc(N)sc1C(=O)OCC(C)C`: the “hERG current change (%, negative = inhibition) at 10uM” value came out at 15.9%.

On to `CC1(C)CC2(CC(c3cccs3)c3cc(Cl)c(O)cc3O2)NC(=S)N1` (stereo not shown), for which the “hERG current change (%, negative = inhibition) at 10uM” value is on record as 0.54%.

As for `O=C(c1ccc(Cl)cc1)N1CCN(c2cccc3[nH]ccc23)CC1`, the “hERG current change (%, negative = inhibition) at 10uM” value is given as 3.68%.

Consider `S=c1[nH]nc(-c2ccccc2)n1CC1CCCO1` (stereo not shown), for which the “hERG current change (%, negative = inhibition) at 10uM” value came to 16%.

Regarding `O=C(Nc1nc(-c2cccs2)cs1)c1ccc(Cl)cc1`, the “hERG current change (%, negative = inhibition) at 10uM” value is recorded as -8.66%.

As to `Cc1cccc(N2C(=O)N3[C@H](c4ccc(F)cc4)[C@@H]4C(=O)N(C5CCCCC5)C(=O)[C@@H]4[C@]3(Cc3ccc(Cl)cc3)C2=O)c1`, the “hERG current change (%, negative = inhibition) at 10uM” value is listed as 14.9%.

Turning to `COc1ccc(NC(=O)c2onc(C)c2Cl)cc1`, the “hERG current change (%, negative = inhibition) at 10uM” value is recorded as -11.3%.

On to `CCC1Nc2ncnc(N3CCCCC3)c2N(Cc2ccccc2)C1=O.O=C(O)C(F)(F)F` (stereo not shown), for which the “hERG current change (%, negative = inhibition) at 10uM” value is reported as -4.8%.

With `CC(C)[C@H](NC(=O)Nc1ccc(S(N)(=O)=O)cc1)C(=O)O`, the “hERG current change (%, negative = inhibition) at 10uM” value is 16.9%.

Consider `Cc1cc(C)c([N+](=O)[O-])cc1-c1ccc(/C=N/c2c(-c3ccco3)nc3ccccn23)o1`, for which the “hERG current change (%, negative = inhibition) at 10uM” value came to 11.2%.

With `CCCSc1nc2cc(C)c(C)cc2n1CC(O)CO` (stereo not shown), the “hERG current change (%, negative = inhibition) at 10uM” value is 1.68%.

In the case of `CC1CCCN(c2nc3c(c(=O)n(C)c(=O)n3C)n2CCSc2nc3ccccc3s2)C1` (stereo not shown), the “hERG current change (%, negative = inhibition) at 10uM” value is -23.9%.

For `NC(=S)Nc1cnc2ccccc2c1`, the “hERG current change (%, negative = inhibition) at 10uM” value came to 14.7%.

`CC(NC(=O)C1CCN(c2nnc(-n3cccc3)s2)CC1)C12CC3CC(CC(C3)C1)C2` (stereo not shown): the “hERG current change (%, negative = inhibition) at 10uM” value is -5.82%.

Turning to `O=C(NCCCn1ccnc1)c1ccc2c(c1)OCCO2`, the “hERG current change (%, negative = inhibition) at 10uM” value was 6.86%.

Take `CCCCCCCCCCCC(=O)NC1CCS(=O)(=O)C1` (stereo not shown): the “hERG current change (%, negative = inhibition) at 10uM” value is -3.37%.

With `CCC(C(=O)NCCC1=CCCCC1)n1nc(C)c2c(C)n(-c3ccccc3)nc2c1=O` (stereo not shown), the “hERG current change (%, negative = inhibition) at 10uM” value is -48.6%.
